The campaign covered roughly 420,000 compounds. About 64,000 (15%) were called active. This list was built around the results that the source calls inconclusive (neither active nor inactive); the mix of calls is not that of the screen. Calls follow the shape of the dose curve; as a rule, active = well fitted inhibition curve with a large enough effect; inconclusive = small, poorly fitted or top-dose-only effect; inactive = flat fitted curve, though single readings scatter. No potency is given beside an inconclusive call; the fits are too rough.
Experiment: qHTS for Inhibitors of human tyrosyl-DNA phosphodiesterase 1 (TDP1): qHTS in cells in absence of CPT; also: nearly all actives have a fitted effect of over 55% in size
Settings: DT40 Tdp1-/- hTDP1 cells, no CPT, ATP luminescence, 48 h; activity change, negative = growth inhibition: at 46.2 µM (top of the series) unless noted
Method in brief: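 A cellular qHTS used chicken DT40 cells lacking endogenous Tdp1 but carrying stably transfected human TDP1. Compounds were applied without camptothecin, and cell growth kinetics were judged by ATP-dependent luminescence after ≥48 hr.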
In the case of `O=C(CSc1nnc(-c2ccccc2Cl)n1Cc1ccco1)Nc1ccc2c(c1)OCCO2`, the Potency is reported as inconclusive [inhibitor, single point]. For `CCCCc1ccc(C(=O)c2c(N)c(C(=O)Nc3cccc(OC)c3)c3ccccn23)cc1`, the Potency was inconclusive [inhibitor, partial curve]. With `O=C(NCCCN1CCC(Cc2ccccc2)CC1)c1ccc2nc(N3CCOCC3)sc2c1` the Potency was inconclusive [inhibitor, single point]. In the case of `COc1ccc(C(=O)/C=C/Sc2nc3ccccc3o2)cc1`, the Potency is reported as active: 2.31 µM. With `Cc1oc(-c2ccccc2)nc1C(=O)N1CCN(c2ccc(F)cc2)CC1` the Potency was inconclusive [inhibitor, single point]. For `CC1CC(C)CN(c2ccc([N+](=O)[O-])cc2-c2nn[nH]n2)C1` (configuration not stated), the Potency was “inactive”. With `CCOc1cccc(OCCCCn2ccnc2)c1` the Potency was inconclusive [inhibitor, single point]. In the case of `CCC(CC)C(=O)N1CCN(Cc2nc3ccccc3c(=O)[nH]2)CC1`, the Potency is reported as “inactive”. For `Cc1nnc(N2C(=O)c3oc4ccccc4c(=O)c3C2c2cccc(OCCC(C)C)c2)s1` (configuration not stated), the Potency was inconclusive [inhibitor, full curve, poor fit]. For `O=C(NCc1ccc2c(c1)OCO2)c1ccc(CS(=O)(=O)Cc2cccc(Cl)c2)o1`, the Potency was inconclusive [inhibitor, single point]. In the case of `Cc1onc(-c2ccccc2)c1C(=O)Nc1ccc(Cl)cn1`, the Potency is reported as inconclusive [inhibitor, single point]. In the case of `N#Cc1cccc(NC(=O)COC(=O)C2CCC2)c1`, the Potency is reported as “inactive”. For `COc1ccc(/C=N/N=C2/NC(=O)C(CC(=O)O)S2)cc1OCc1ccc(Cl)cc1Cl` (configuration not stated), the Potency was “inactive”. With `CC1CCN(C(=O)Cn2cc(SCC(=O)NCc3ccc(F)cc3)c3ccccc32)CC1` the Potency was active: 20.6 µM. With `Cc1ccccc1-n1nc2c(c1NC(=O)C(C)(C)C)CS(=O)(=O)C2` the Potency was “inactive”. With `CCCCOC(=O)Nc1sc2nc(C)cc(C)c2c1-n1cccc1` the activity change, negative = growth inhibition was inconclusive: -34.7% [inhibitor]. With `O=C(CCn1c(=O)oc2cc(Cl)ccc21)Nc1ccc(O)cc1` the Potency was inconclusive [inhibitor, single point]. With `Cc1ccc(C)c(N2CCN(CCN3CCCCC3)CC2)c1` the Potency was inconclusive [inhibitor, partial curve, poor fit]. For `COc1ccccc1N1CCN(c2nc(N)c(C#N)c(CC#N)c2C#N)CC1`, the Potency was inconclusive [inhibitor, single point]. With `COc1cccc(C(NC(C)=O)c2nc(-c3ccc(F)cc3OC)cs2)c1` (configuration not stated) the Potency was inconclusive [inhibitor, single point]. For `COc1ccc(C(CNc2nc(-c3cccnc3)nc3ccccc23)N(C)C)cc1` (configuration not stated), the Potency was inconclusive [inhibitor, single point]. In the case of `Cc1ccc(NC(=O)CN2C(=O)NC3(CCCCCCC3)C2=O)cc1C`, the Potency is reported as inconclusive [inhibitor, partial curve]. In the case of `Cc1ccc(C(=O)N2CCN(S(=O)(=O)c3ccccc3)CC2)s1`, the Potency is reported as “inactive”. In the case of `O=C(Nc1ccc2c(c1)CCC2)C1CCCN(c2ncccn2)C1` (configuration not stated), the Potency is reported as inconclusive [inhibitor, partial curve]. In the case of `Cc1ccc(NS(=O)(=O)c2ccc(C(=O)NCc3cccnc3)cc2)cc1`, the Potency is reported as active: 14.6 µM. With `CCN(CC)c1ccc(/C=N/NC(=O)c2ccc3nc[nH]c3c2)cc1` the Potency was inconclusive [inhibitor, single point]. With `CC1(C)Cc2c(cnn2-c2ccccc2)-c2c1c1ccccc1n2CC(O)CCl` (configuration not stated) the Potency was inconclusive [inhibitor, single point]. With `CCn1c(COc2ccc(=O)n(-c3ccccc3)n2)nnc1SCc1ccccc1C` the Potency was inconclusive [inhibitor, single point]. For `COc1ccc(CCNC(=O)C2CCN(C(=O)c3ccc(F)cc3)CC2)cc1`, the Potency was “inactive”. With `O=C(NCc1ccccn1)c1ccc(Cl)c(S(=O)(=O)N2CCCCCC2)c1` the Potency was inconclusive [inhibitor, single point]. In the case of `COCCCNC(=O)c1c(NC(=O)Cc2coc3cc(C)ccc23)sc2c1CCCC2`, the Potency is reported as active: 16.4 µM. In the case of `COc1cc(OC)c(C(=O)Nc2ccc(N(C)C)cc2)cc1OC`, the Potency is reported as “inactive”. With `O=[N+]([O-])c1cc(Cl)cc(/C=N/n2cnnc2)c1O` the Potency was inconclusive [inhibitor, single point]. In the case of `CCOc1ccc(NS(=O)(=O)c2ccc(OC)c(C)c2)cc1`, the Potency is reported as inconclusive [inhibitor, single point]. For `CCOC(=O)C1(Cc2cccc(F)c2)CCN(C(=O)COC)CC1`, the Potency was “inactive”. In the case of `CC1(C)N=C(N)N=C(N)N1c1ccc(OCCCOc2ccccc2)c(Cl)c1`, the Potency is reported as active: 2.31 µM. In the case of `COC(=O)c1ccc(OC(=O)CCS(=O)(=O)c2ccc(C)cc2)cc1`, the Potency is reported as “inactive”. For `CCCC(CNC(=O)COC(=O)C1=NNC(=O)CC1)c1ccc(Cl)cc1Cl` (configuration not stated), the Potency was inconclusive [inhibitor, single point]. With `CC(C)CN(C(=O)CN(C)CC(=O)Nc1ccc(Cl)c(C(F)(F)F)c1)c1c(N)n(CC(C)C)c(=O)[nH]c1=O` the Potency was active: 18.4 µM. With `O=C1c2cccnc2C(O)N1Cc1ccc(F)cc1` (configuration not stated) the Potency was “inactive”. For `O=C(C[N+]1(CCO)CCOCC1)c1cccs1`, the Potency was “inactive”. For `O=[N+]([O-])c1cc(-c2nc(-c3ccccc3)no2)ccc1NCc1ccco1`, the Potency was “inactive”. For `CCNC(=S)N=Nc1c(O)n(Cc2ccc(Cl)cc2)c2ccccc12`, the Potency was inconclusive [inhibitor, single point]. For `CC(C)C(NC(=O)C1CCCCC1)C(=O)NCCc1ccccc1` (configuration not stated), the Potency was “inactive”. With `Cc1ccc2oc(C(=O)N(C)Cc3ccc(C)o3)c(C)c2c1` the Potency was active: 16.4 µM. In the case of `Cc1ccc(-c2noc(-c3ccc(N4CCOCC4)c([N+](=O)[O-])c3)n2)cc1`, the Potency is reported as active: 20.6 µM. With `COc1ccc(NC(=O)CSc2nc3ccccc3nc2N2CCOCC2)c(OC)c1` the Potency was inconclusive [inhibitor, single point].
% is scaled to controls: 0 for no effect and ±100 for the full control effect; potency is read from the fitted curve at half-maximal effect; tags tell the direction and shape of the fitted curve.
